# The supplement of paper PMC8728848
# The other results are listed elsewhere or left out.
# B1: Epa1 (Candida glabrata) (protein)
# chain: MGSSHHHHHHSSGLVPRGSHMTSSNDISLASKDPTTFPLGCSPDITTPKKGLSMELYSYDFRKKGSYPCWDAAYLDPNYPRTGYKSHRLLAKVDGVTGNINFYYHATKGCTPQLGHLPASYNYPKPLTMTNFTMLLYGYFRPKVTGFHTFTISADDLLFVNFGAGNAFDCCRRDSSADHFGNYQAYAIWGSKTAKDELTVHLDAGVYYPIRLFYNNREYDGALSFTFKTESNENTVSDFSEYFFSLDDTEEGCPGLISYD
# Experiments:
# Experiment in all cases: glycan array binding signal (z-score within array); higher = stronger binding
# Details in all cases: glycan notation: IUPAC condensed, linker removed
# Fuc(a1-2)Gal = target: Fuc(a1-2)Gal
# In short: (§1)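 Columns mapping to the same glycan were averaged after glycan names were converted to IUPAC-condensed notation. The data come from 3228 arrays in the Consortium for Functional Glycomics database, limited to those with an available protein sequence. Binding is reported as a within-array Z-score averaged across arrays of one protein sequence and across linkers.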
# Fuc(a1-2)Gal(b1-3)GalNAc = target: Fuc(a1-2)Gal(b1-3)GalNAc
# In short: as §1
# [1] = target: Fuc(a1-2)Gal(b1-3)GalNAc(a1-3)[Fuc(a1-2)]Gal(b1-4)Glc
# In short: as §1
# [2] = target: Fuc(a1-2)Gal(b1-3)GalNAc(a1-3)[Fuc(a1-2)]Gal(b1-4)GlcNAc
# In short: as §1
# [3] = target: Fuc(a1-2)Gal(b1-3)GalNAc(b1-3)Gal
# In short: as §1
# [4] = target: Fuc(a1-2)Gal(b1-3)GalNAc(b1-3)Gal(a1-4)Gal(b1-4)Glc
# In short: as §1
# [5] = target: Fuc(a1-2)Gal(b1-3)GalNAc(b1-4)[Neu5Ac(a2-3)]Gal(b1-4)Glc
# In short: as §1
# Fuc(a1-2)Gal(b1-3)GlcNAc = target: Fuc(a1-2)Gal(b1-3)GlcNAc
# In short: as §1
# [6] = target: Fuc(a1-2)Gal(b1-3)GlcNAc(b1-2)Man(a1-3)[Fuc(a1-2)Gal(b1-3)GlcNAc(b1-2)Man(a1-6)]Man(b1-4)GlcNAc(b1-4)GlcNAc
# In short: as §1
# [7] = target: Fuc(a1-2)Gal(b1-3)GlcNAc(b1-2)Man(a1-3)[Fuc(a1-2)Gal(b1-3)GlcNAc(b1-2)Man(a1-6)]Man(b1-4)GlcNAc(b1-4)[Fuc(a1-6)]GlcNAc
# In short: as §1
# [8] = target: Fuc(a1-2)Gal(b1-3)GlcNAc(b1-3)Gal(b1-4)Glc
# In short: as §1
# [9] = target: Fuc(a1-2)Gal(b1-3)GlcNAc(b1-3)GalNAc
# In short: as §1
# [10] = target: Fuc(a1-2)Gal(b1-3)GlcNAc(b1-3)[Fuc(a1-2)Gal(b1-3)GlcNAc(b1-6)]GalNAc
# In short: as §1
# [11] = target: Fuc(a1-2)Gal(b1-3)GlcNAc(b1-3)[Gal(b1-4)GlcNAc(b1-6)]Gal(b1-4)Glc
# In short: as §1
# [12] = target: Fuc(a1-2)Gal(b1-3)GlcNAc(b1-3)[Neu5Ac(a2-6)Gal(b1-4)GlcNAc(b1-6)]Gal(b1-4)Glc
# In short: as §1
# [13] = target: Fuc(a1-2)Gal(b1-3)GlcNAc6S
# In short: as §1
# [14] = target: Fuc(a1-2)Gal(b1-3)[Fuc(a1-4)]GlcNAc
# In short: as §1
# [15] = target: Fuc(a1-2)Gal(b1-3)[Fuc(a1-4)]GlcNAc(b1-2)Man(a1-3)[Fuc(a1-2)Gal(b1-3)[Fuc(a1-4)]GlcNAc(b1-2)Man(a1-3)]Man(b1-4)GlcNAc(b1-4)GlcNAc
# In short: as §1
# [16] = target: Fuc(a1-2)Gal(b1-3)[Fuc(a1-4)]GlcNAc(b1-2)Man(a1-3)[Fuc(a1-2)Gal(b1-3)[Fuc(a1-4)]GlcNAc(b1-2)Man(a1-6)]Man(b1-4)GlcNAc(b1-4)[Fuc(a1-6)]GlcNAc(b1-4)[Fuc(a1-6)]GlcNAc
# In short: as §1
# [17] = target: Fuc(a1-2)Gal(b1-3)[Fuc(a1-4)]GlcNAc(b1-3)[Fuc(a1-3)[Gal(b1-4)]GlcNAc(b1-6)]Gal(b1-4)Glc
# In short: as §1
# [18] = target: Fuc(a1-2)Gal(b1-3)[Fuc(a1-4)]GlcNAc(b1-3)[Gal(b1-4)GlcNAc(b1-6)]Gal(b1-4)Glc
# In short: as §1
# [19] = target: Fuc(a1-2)Gal(b1-4)Fuc(a1-3)]GlcNAc(b1-2)Man(a1-3)[Fuc(a1-2)Gal(b1-4)[Fuc(a1-3)]GlcNAc(b1-2)Man(a1-6)]Man(b1-4)GlcNAc(b1-4)GlcNAc
# In short: as §1
# Fuc(a1-2)Gal(b1-4)Glc = target: Fuc(a1-2)Gal(b1-4)Glc
# In short: as §1
# Fuc(a1-2)Gal(b1-4)Glc6S = target: Fuc(a1-2)Gal(b1-4)Glc6S
# In short: as §1
# Fuc(a1-2)Gal(b1-4)GlcNAc = target: Fuc(a1-2)Gal(b1-4)GlcNAc
# In short: as §1
# [20] = target: Fuc(a1-2)Gal(b1-4)GlcNAc(b1-2)Man
# In short: as §1
# [21] = target: Fuc(a1-2)Gal(b1-4)GlcNAc(b1-2)Man(a1-3)[Fuc(a1-2)Gal(b1-4)GlcNAc(b1-2)Man(a1-6)]Man(b1-4)GlcNAc(b1-4)GlcNAc
# In short: as §1
# [22] = target: Fuc(a1-2)Gal(b1-4)GlcNAc(b1-2)Man(a1-3)[Fuc(a1-2)Gal(b1-4)GlcNAc(b1-2)Man(a1-6)]Man(b1-4)GlcNAc(b1-4)[Fuc(a1-6)]GlcNAc
# In short: as §1
# [23] = target: Fuc(a1-2)Gal(b1-4)GlcNAc(b1-2)[Fuc(a1-2)Gal(b1-4)GlcNAc(b1-4)]Man(a1-3)[Fuc(a1-2)Gal(b1-4)GlcNAc(b1-2)Man(a1-6)]Man(b1-4)GlcNAc(b1-4)GlcNAc
# In short: as §1
# [24] = target: Fuc(a1-2)Gal(b1-4)GlcNAc(b1-3)Gal(b1-4)GlcNAc
# In short: as §1
# [25] = target: Fuc(a1-2)Gal(b1-4)GlcNAc(b1-3)Gal(b1-4)GlcNAc(b1-2)Man(a1-3)[Fuc(a1-2)Gal(b1-4)GlcNAc(b1-3)Gal(b1-4)GlcNAc(b1-2)Man(a1-6)]Man(b1-4)GlcNAc(b1-4)GlcNAc
# In short: as §1
# [26] = target: Fuc(a1-2)Gal(b1-4)GlcNAc(b1-3)Gal(b1-4)GlcNAc(b1-3)Gal(b1-4)GlcNAc
# In short: as §1
# [27] = target: Fuc(a1-2)Gal(b1-4)GlcNAc(b1-3)GalNAc
# In short: as §1
# [28] = target: Fuc(a1-2)Gal(b1-4)GlcNAc(b1-3)[Fuc(a1-2)Gal(b1-4)GlcNAc(b1-6)]GalNAc
# In short: as §1
# [29] = target: Fuc(a1-2)Gal(b1-4)GlcNAc(b1-3)[Fuc(a1-3)[Gal(b1-4)]GlcNAc(b1-6)]Gal(b1-4)Glc
# In short: as §1
# [30] = target: Fuc(a1-2)Gal(b1-4)GlcNAc(b1-6)GalNAc
# In short: as §1
# [31] = target: Fuc(a1-2)Gal(b1-4)GlcNAc6S
# In short: as §1
binder,measurement,setting,value
B1,glycan array binding signal (z-score),Fuc(a1-2)Gal,-0.506
same,glycan array binding signal (z-score),Fuc(a1-2)Gal(b1-3)GalNAc,-0.25
same,glycan array binding signal (z-score),[1],-0.302
same,glycan array binding signal (z-score),[2],-0.18
same,glycan array binding signal (z-score),[3],-0.273
same,glycan array binding signal (z-score),[4],-0.291
same,glycan array binding signal (z-score),[5],-0.07
same,glycan array binding signal (z-score),Fuc(a1-2)Gal(b1-3)GlcNAc,-0.312
same,glycan array binding signal (z-score),[6],-0.313
same,glycan array binding signal (z-score),[7],-0.325
same,glycan array binding signal (z-score),[8],-0.328
same,glycan array binding signal (z-score),[9],-0.312
same,glycan array binding signal (z-score),[10],-0.223
same,glycan array binding signal (z-score),[11],0.361
same,glycan array binding signal (z-score),[12],-0.234
same,glycan array binding signal (z-score),[13],-0.247
same,glycan array binding signal (z-score),[14],-0.335
same,glycan array binding signal (z-score),[15],-0.22
same,glycan array binding signal (z-score),[16],-0.286
same,glycan array binding signal (z-score),[17],-0.252
same,glycan array binding signal (z-score),[18],-0.074
same,glycan array binding signal (z-score),[19],-0.162
same,glycan array binding signal (z-score),Fuc(a1-2)Gal(b1-4)Glc,-0.282
same,glycan array binding signal (z-score),Fuc(a1-2)Gal(b1-4)Glc6S,-0.215
same,glycan array binding signal (z-score),Fuc(a1-2)Gal(b1-4)GlcNAc,-0.288
same,glycan array binding signal (z-score),[20],-0.292
same,glycan array binding signal (z-score),[21],-0.274
same,glycan array binding signal (z-score),[22],-0.2
same,glycan array binding signal (z-score),[23],-0.323
same,glycan array binding signal (z-score),[24],-0.343
same,glycan array binding signal (z-score),[25],-0.283
same,glycan array binding signal (z-score),[26],-0.394
same,glycan array binding signal (z-score),[27],-0.319
same,glycan array binding signal (z-score),[28],-0.181
same,glycan array binding signal (z-score),[29],-0.226
same,glycan array binding signal (z-score),[30],-0.195
same,glycan array binding signal (z-score),[31],-0.166
